PubChem BioAssay AID1454 (National Center for Advancing Translational Sciences (NCATS), 2008)
In all, about 130,000 compounds went through this assay and about 550 (0.42%) were called active. This list was built around the results that the source calls inconclusive (neither active nor inactive); the mix of calls is not that of the screen. Calls follow the shape of the dose curve; as a rule, active = well fitted inhibition curve with a large enough effect; inconclusive = small, poorly fitted or top-dose-only effect, or effect the other way; inactive = flat fitted curve, though single readings scatter. Potencies of inconclusive entries are left out as doubtful fits.

Experiment: qHTS Assay for Inhibitors of the ERK Signaling Pathway using a Homogeneous Screening Assay; Stimulation with EGF; also: nearly all actives have a fitted effect of over 55% in size
Conditions: HEK293-V1b, EGF-stimulated phospho-ERK AlphaScreen
Procedure, shortened: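 EGF-stimulated (25 nM, 5 min) phospho-ERK in HEK293 cells stably expressing V1b, cells pretreated 30 min with compound at 37C. Homogeneous AlphaScreen read on lysates.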
Potency is read from the fitted curve at half-maximal effect; tags tell the direction and shape of the fitted curve.

**Q.** With CCOc1cccc(=O)c2c(C)n(-c3ccc(C(=O)O)cc3)c(C)c12 as the compound, how does the Potency read?
**A.** inactive

**Q.** With Cc1cccn2c(CNCCCn3ncc4ccccc43)c(C(=O)N3CCCCC3)nc12 as the compound, how does the Potency read?
**A.** inconclusive [inhibitor, single point]

**Q.** Which Potency does the source give for COc1ccccc1Oc1ccc(S(=O)(=O)N2CCOCC2)cc1S(=O)(=O)N1CCOCC1 here?
**A.** inactive

**Q.** Which Potency does the source give for CCOC(=O)c1cnc(SC)nc1Oc1cccc(NS(=O)(=O)c2ccc(Cl)cc2)c1 here?
**A.** inconclusive [activator, single point]

**Q.** With Brc1ccc(Nc2ncnc3[nH]ncc23)cc1 as the compound, how does the Potency read?
**A.** inconclusive [inhibitor, single point]

**Q.** Which Potency does the source give for Nc1scc[n+]1Cc1cccc2cccnc12 here?
**A.** inconclusive [inhibitor, partial curve]

**Q.** Which Potency does the source give for CCSc1cc(N2CCCC2)nc(-c2ccc(C)cc2)n1 here?
**A.** inconclusive [activator, single point]

**Q.** For COc1cccc(Oc2nc(-c3ccncc3)nc3ccccc23)c1, which Potency is on record?
**A.** inconclusive [inhibitor, partial curve]

**Q.** For O=C(CN1CCCCC1)Nc1ccc(Br)cc1[N+](=O)[O-], which Potency is on record?
**A.** inconclusive [inhibitor, partial curve]

**Q.** Which Potency does the source give for CCN(CC)S(=O)(=O)c1cccc(NC(=O)/C=C/c2cccc([N+](=O)[O-])c2)c1 here?
**A.** inconclusive [inhibitor, partial curve]

**Q.** Which Potency does the source give for O=C(COC(=O)c1c2c(nc3ccccc13)/C(=C\c1cccs1)CCC2)Nc1ccccc1Cl here?
**A.** inconclusive [activator, single point]

**Q.** With CN(C)S(=O)(=O)c1cccc(-c2nn(-c3ccccc3)cc2/C=C2\SC(=S)NC2=O)c1 as the compound, how does the Potency read?
**A.** inconclusive [inhibitor, single point]

**Q.** With CCn1c(CCCOc2ccc(Cl)cc2Cl)nnc1SCC(=O)Nc1cc(F)ccc1C as the compound, how does the Potency read?
**A.** inconclusive [inhibitor, partial curve]

**Q.** For N#C/C(=C\c1cccc([N+](=O)[O-])c1)C(=O)NCc1cccnc1, which Potency is on record?
**A.** inconclusive [activator, full curve]

**Q.** Which Potency does the source give for Cc1cc(N=Nc2ccc(C)c(N=Nc3cc(C)c(N)cc3N)c2)c(N)cc1N here?
**A.** inactive

**Q.** With CS(=O)(=O)N1CCC2(CCN(c3ccccn3)CC2)CC1 as the compound, how does the Potency read?
**A.** inactive

**Q.** Which Potency does the source give for CC1CCCN(CC(O)COC(c2ccccc2)c2ccccc2)C1 (configuration not stated) here?
**A.** inconclusive [inhibitor, single point]

**Q.** For CN(C)/N=C/c1ccc(/C=N/NC(N)=S)o1, which Potency is on record?
**A.** inconclusive [inhibitor, single point]

**Q.** With CSc1nsc(SCC(=O)Nc2nc3ccccc3s2)n1 as the compound, how does the Potency read?
**A.** inconclusive [inhibitor, single point]

**Q.** For COc1ccc(C2CC(c3cccs3)=NN2c2ccccc2)cc1 (configuration not stated), which Potency is on record?
**A.** inconclusive [activator, partial curve]

**Q.** Which Potency does the source give for O=C(COc1ccc(Cl)cc1Cl)NC(=S)Nc1ccc(CN2CCOCC2)cc1 here?
**A.** active: 20 µM

**Q.** With Cn1ncc2c(Nc3ccc(Br)cc3)nc(Nc3ccc(Br)cc3)nc21 as the compound, how does the Potency read?
**A.** inconclusive [inhibitor, single point]

**Q.** For CCC(C)C1=CC(=Nc2c(C)n(C)n(-c3ccccc3)c2=O)C=C(C(C)CC)C1=O (configuration not stated), which Potency is on record?
**A.** active: 15.8 µM

**Q.** With CN1CCN(C(=S)c2ccc(-c3cccc([N+](=O)[O-])c3)o2)CC1 as the compound, how does the Potency read?
**A.** inconclusive [inhibitor, single point]

**Q.** Which Potency does the source give for O=C1Nc2ccc(Cl)cc2[C@@](C#CC2CC2)(C(F)(F)F)O1 here?
**A.** inconclusive [inhibitor, partial curve]

**Q.** With Cc1cc(=O)c2c(O)cc(O)c(C)c2o1 as the compound, how does the Potency read?
**A.** inactive

**Q.** Which Potency does the source give for O=C(O)c1ccc(NC2=C/C(=N/S(=O)(=O)c3ccccc3)c3ccccc3C2=O)cc1 here?
**A.** inconclusive [inhibitor, single point]

**Q.** Which Potency does the source give for Cc1ccc(O)c(C(=O)c2cc(C(=O)NCCc3ccccc3)c(=O)n(CCc3ccccc3)c2)c1 here?
**A.** inconclusive [inhibitor, single point]

**Q.** For COc1cccc(NC(=O)CSc2nc3c(oc4ccccc43)c(=O)[nH]2)c1, which Potency is on record?
**A.** inactive

**Q.** With CCN1CCc2c(sc(NC(=S)NC(=O)c3ccc(Cl)cc3)c2C(N)=O)C1 as the compound, how does the Potency read?
**A.** inconclusive [inhibitor, partial curve]

**Q.** With CCN(CC)CCNCc1cc(Cl)ccc1OCc1ccccc1F as the compound, how does the Potency read?
**A.** inconclusive [inhibitor, single point]

**Q.** Which Potency does the source give for Cn1c(=O)n(C)c2cc([N+](=O)[O-])c(N3CCN(C(=O)c4ccccc4Br)CC3)cc21 here?
**A.** inconclusive [inhibitor, partial curve]

**Q.** With S=c1[nH]nc(COc2ccccc2)n1/N=C/c1ccco1 as the compound, how does the Potency read?
**A.** inconclusive [inhibitor, single point]

**Q.** With C=CCCCCCCCCCCCC(O)CC(O)CO (configuration not stated) (tested in a mixture with another compound) as the compound, how does the Potency read?
**A.** inactive

**Q.** With CCCCCCCCn1c(=O)c(C(=O)OC)c(N)c2ccccc21 as the compound, how does the Potency read?
**A.** inconclusive [inhibitor, single point]

**Q.** With COc1ccc(OCC(O)CNC(=O)Nc2cccc3ccccc23)cc1 (configuration not stated) as the compound, how does the Potency read?
**A.** inactive

**Q.** With O=c1[nH]c(CSc2nc3ccccc3[nH]2)nc2c1cnn2-c1ccccc1 as the compound, how does the Potency read?
**A.** inconclusive [inhibitor, single point]

**Q.** With COc1ccc(CCNC(=O)c2ccc(CS(=O)(=O)c3ccc(Br)cc3)o2)cc1OC as the compound, how does the Potency read?
**A.** inconclusive [inhibitor, single point]

**Q.** Which Potency does the source give for COc1ccccc1NC(=O)Nc1nc(C(C)(C)C)cs1 here?
**A.** inconclusive [inhibitor, single point]

**Q.** Which Potency does the source give for COc1ccc(N2CCN(CC(=O)Nc3ccccc3SC)CC2)cc1 here?
**A.** inconclusive [inhibitor, single point]

**Q.** With Cc1nn(C)cc1/C=N/NC(=O)CSc1ccccn1 as the compound, how does the Potency read?
**A.** inconclusive [activator, partial curve]

**Q.** With CC(=O)N(Cc1cccs1)Cc1cc2ccc(C)c(C)c2nc1Cl as the compound, how does the Potency read?
**A.** inconclusive [inhibitor, single point]

**Q.** With O=[N+]([O-])c1ccc(N/N=C/c2ccc(O)c(O)c2O)c(S(=O)(=O)N2CCOCC2)c1 as the compound, how does the Potency read?
**A.** inconclusive [inhibitor, partial curve]

**Q.** With COc1ccc(N=C2NC(=O)/C(=C\C=C\c3ccco3)S2)cc1 as the compound, how does the Potency read?
**A.** inconclusive [inhibitor, full curve, poor fit]

**Q.** With O=C1CC(c2ccccc2Cl)CC(O)=C1C=Nc1ccccc1 (configuration not stated) as the compound, how does the Potency read?
**A.** inconclusive [inhibitor, single point]

**Q.** For COCCNC(=O)c1cnn2c(C(F)F)cc(-c3ccc(C)cc3)nc12, which Potency is on record?
**A.** inactive

**Q.** For O=C(c1ccc2ccccc2n1)N1CCN(c2ccccc2Cl)CC1, which Potency is on record?
**A.** inconclusive [inhibitor, single point]

**Q.** For O=C(COC(=O)c1ccc(O)cc1)Nc1cc(C(F)(F)F)ccc1Cl, which Potency is on record?
**A.** inconclusive [inhibitor, full curve]

**Q.** With COc1ccc(Nc2ccccc2N)cc1 as the compound, how does the Potency read?
**A.** inactive

**Q.** For COc1ccc(CCN2C(=O)c3cccc4c(C(=O)N5CCCCC5)ccc(c34)C2=O)cc1OC, which Potency is on record?
**A.** inconclusive [inhibitor, partial curve, poor fit]

**Q.** For O=C(CN1CCCc2ccccc21)Nc1ccc(F)cc1[N+](=O)[O-], which Potency is on record?
**A.** inconclusive [inhibitor, partial curve]

**Q.** Which Potency does the source give for COc1ccc(-n2c(C)ccc2C)c([N+](=O)[O-])c1 here?
**A.** inconclusive [inhibitor, single point]

**Q.** Which Potency does the source give for CCOC(CNC(=O)c1ccc2c(c1)ncn2-c1cccc(F)c1)OCC here?
**A.** inconclusive [inhibitor, partial curve]

**Q.** For CCOC(=O)c1c(C)[nH]c(C(=O)COC(=O)CNC(=O)c2ccccc2Cl)c1C, which Potency is on record?
**A.** inconclusive [activator, partial curve]

**Q.** For CC1CCCN(c2ccc(C(=O)OCC(=O)N3c4ccccc4Sc4ccccc43)cc2[N+](=O)[O-])C1 (configuration not stated), which Potency is on record?
**A.** inconclusive [inhibitor, partial curve]

**Q.** For COc1ccc(NC(=O)/C(Cl)=C(/Cl)S(=O)Cc2ccccc2Cl)cn1 (configuration not stated), which Potency is on record?
**A.** inconclusive [inhibitor, single point]

**Q.** Which Potency does the source give for CSc1ccc(/C=N/n2c(Cc3ccc(Br)cc3)n[nH]c2=S)cc1 here?
**A.** inconclusive [inhibitor, single point]

**Q.** With COc1cccc(C(=O)C(C#N)=C(SC)SC)c1 as the compound, how does the Potency read?
**A.** inconclusive [inhibitor, single point]

**Q.** Which Potency does the source give for CC(NCCc1ccc(O)cc1)C(O)c1ccc(O)cc1 (configuration not stated) here?
**A.** inactive

**Q.** For Cc1ccc(NC(=O)CN(C)Cc2nc3c(Br)cc(Br)cc3c(=O)[nH]2)cc1, which Potency is on record?
**A.** inconclusive [inhibitor, single point]

**Q.** Which Potency does the source give for O=C(CSc1nnnn1Cc1ccccc1)Nc1ccccc1 here?
**A.** inconclusive [inhibitor, single point]

**Q.** For O=C1C=CC2=C3c4cc(O)c(O)cc4CC3(O)COC2=C1O (configuration not stated), which Potency is on record?
**A.** inconclusive [inhibitor, single point]

**Q.** With NS(=O)(=O)c1ccc(NC(=O)COC(=O)c2ccco2)cc1 as the compound, how does the Potency read?
**A.** inactive

**Q.** For O=C(Nc1ccc(Cl)c(S(=O)(=O)Nc2ccccc2Cl)c1)c1cccs1, which Potency is on record?
**A.** inconclusive [inhibitor, single point]

**Q.** For CNc1cc(OC)c(C(=O)N[C@@H]2CCN(Cc3ccccc3)[C@H]2C)cc1Cl, which Potency is on record?
**A.** inactive

**Q.** With COCCN(CCOC)c1nc(C)nc2c1nc(-c1ccccc1)n2CCN(C)C as the compound, how does the Potency read?
**A.** inactive

**Q.** Which Potency does the source give for COc1cc(N2CCCC2)c(OC)cc1/C=C1/NC(=S)NC1=O here?
**A.** inactive
